# Experimental data taken from article PMC6212790.
# The list shows a part of the results. At the low end of the ranking the order means little.
# Target: T1, GST-Rok-C97-191 (UniProt O34857)
# T1 sequence: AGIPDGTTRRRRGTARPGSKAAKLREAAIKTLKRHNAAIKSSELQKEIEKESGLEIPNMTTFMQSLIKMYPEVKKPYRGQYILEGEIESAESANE
# Assay: protein binding microarray;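 also: rank score from −0.5 (least bound) to 0.5 (best bound)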
# Conditions: Rok is a gene silencer of Bacillus subtilis; high values mean tight binding; most listed sequences are background and not binding sites; double strand, one strand shown
row,Sequence,binding signal [E-score]
1,CACTGACA,-0.104
2,AGATCCAG,-0.159
3,ATTCGAGA,0.0852
4,ATCTTGAA,0.0632
5,ACTCAATA,0.243
6,ACGTTTAA,-0.0428
7,GAGTAATA,0.182
8,CGCATAAA,0.0601
9,CTCGAACA,0.0547
10,CATCAGAG,-0.134
11,CTTACAAC,0.116
12,CTATGCGC,-0.0129
13,CCGGTTTC,-0.169
14,GAAATCCA,0.0437
15,ATTGTAGA,0.249
16,CCAATAGG,-0.066
17,ATTCGATC,0.263
18,ACTGTCAC,0.00386
19,TCTACTAA,0.342
20,TCTAGCAA,0.213
21,CGGGCGGC,-0.394
22,AGAACTCC,-0.0816
23,TCTATTAA,0.164
24,GAGCAAGA,-0.102
25,AGCTCCTA,0.0277

row,Sequence,binding signal [E-score]
1,AGGAACCC,-0.0447
2,TAAATAGA,0.216
3,ATCGAATC,0.0814
4,TACCGCTA,0.179
5,AACCCAGA,-0.00415
6,CCATTTAG,0.0457
7,AGTAAAGA,0.0717
8,TCAGCTGA,-0.133
9,AACATACC,0.247
10,TATGTCAA,0.108
11,ATAGAAGC,0.195
12,AAGTTTTG,0.0673
13,ACGAAATA,0.193
14,TAGATAGA,0.345
15,CCCGTGCC,-0.38
16,CAGTCGCA,-0.223
17,CATTGGTC,-0.0344
18,GACTCCTA,0.0377
19,AGCATTAG,0.148
20,CTTACTGA,0.133
21,GAATGACC,-0.153
22,GGCTCGTA,-0.0948
23,GCATTCGC,-0.249
24,ATATTGCA,-0.0461
25,ACAGATTG,-0.117

row,Sequence,binding signal [E-score]
1,ATTGCCGG,-0.00953
2,CCAGCCAG,-0.278
3,AGTTTGAA,-0.00731
4,GCAATCAC,0.106
5,AAACAGCC,-0.174
6,AGTATTGG,-0.0633
7,ATTCGTTC,0.0172
8,CTTCAATA,0.0793
9,ACAGACGT,0.0363
10,GTGGTCCA,-0.143
11,ACATGGGT,0.0579
12,CACGTAAG,-0.041
13,ATTCTACG,0.179
14,GGTCAATA,0.102
15,ACAAGCCA,-0.228
16,AATCCTAC,0.226
17,CTTATGCA,-0.0393
18,CTGACTTC,-0.115
19,AACGCTAA,0.196
20,GCACTCCA,-0.0612
21,GTTCCATA,-0.0288
22,CGGGATTC,-0.122
23,AAACCACG,0.0774
24,AGACTATA,0.28
25,CGGACTAC,-0.00479

row,Sequence,binding signal [E-score]
1,TCATCAAA,0.0122
2,AACGGCCC,-0.138
3,TCTAGTAA,0.265
4,GTCTCAGA,-0.201
5,ATGAGAGG,-0.162
6,AGGCGGAT,-0.209
7,ACAAACAT,0.239
8,AGTCTTAA,-0.138
9,CATTGGGG,-0.353
10,AGGCGGCG,-0.155
11,GTTTCGAA,0.0337
12,AAGCAATT,0.315
13,AGATGGAG,-0.0786
14,GGATTTCA,0.00664
15,GTACTAAA,0.329
16,CCGGCTAG,-0.0397
17,TACCGTAA,0.278
18,CACATCTG,-0.197
19,AGTCCACT,-0.00972
20,CTCGCGAA,-0.0459
21,ACCCGTTA,0.0795
22,GCCATTGA,-0.0503
23,CCTTCCAG,-0.216
24,AAGCCAGT,-0.14
25,AGCTGTCG,-0.0124

row,Sequence,binding signal [E-score]
1,ATGCATGC,-0.17
2,ATGGACGA,-0.199
3,ATCTGCCC,-0.428
4,CAATTAGG,-0.0576
5,CGAGGATC,-0.174
6,ATCTACCA,0.469
7,CGCTTCTC,-0.0348
8,GACAGCTA,0.0485
9,GACAATCA,-0.051
10,AGGGGCAT,-0.0734
11,AAGCATGG,-0.183
12,CGTGTATA,0.22
13,ACCACGGG,-0.148
14,CAGGTAAG,-0.108
15,TCTCCTCA,-0.0627
16,AGCGTACC,-0.188
17,ACCTCACG,-0.122
18,CCATATAA,0.176
19,GGTAGATA,0.432
20,AGGAGGTA,0.0399
21,CCCCAGAG,-0.266
22,TCAGTAAA,0.135
23,CGATCGTA,0.263
24,CACCCACG,-0.0226
25,CGTAAACA,-0.123

row,Sequence,binding signal [E-score]
1,ACGAGGAG,-0.292
2,ACTTACTC,-0.0158
3,CCTGATAC,-0.0177
4,CAGTCTAG,-0.0271
5,CTCGATAA,0.048
6,CAATCATA,0.184
7,GATCGAGC,0.0223
8,AACGGAAC,0.0175
9,ACTCCGAC,-0.0322
10,AAGGTGAT,0.118
11,AGTACCCC,-0.211
12,ACTGTAGA,0.261
13,CGGATGGC,-0.347
14,AACTGGGT,-0.131
15,AATGTAGC,0.144
16,GGGTGCGA,-0.157
17,AAAAACAA,0.151
18,CTCAGACA,-0.187
19,CAGAGGGG,-0.298
20,CAAGGAAC,-0.0696
21,AATCTAGG,0.171
22,CTCCGAAA,0.0585
23,GAATGCTC,-0.14
24,CCACACAG,-0.172
25,ACAGCAAT,0.0454

row,Sequence,binding signal [E-score]
1,TCATGAGA,0.0167
2,AATAACAA,0.189
3,ACATGTCA,-0.0154
4,ATACTCAC,0.158
5,ATCTTCTG,0.0126
6,CGCGGTCA,-0.218
7,GTACTTCA,0.233
8,TCGTGACA,-0.133
9,ACGCCGCT,-0.0905
10,GGTCATTA,-0.103
11,CAACTATG,0.142
12,ACTGCGCA,-0.154
13,CCTACATC,0.187
14,GACTTCGC,-0.205
15,ATCAGACC,0.0209
16,AGAATGGA,-0.0266
17,CGCGCGGC,-0.339
18,CACGAACC,-0.0036
19,ACTCGGTG,0.0735
20,CAGCGTGC,-0.242
21,GGTGAATA,-0.0913
22,CAGGCGAA,-0.198
